Screen size: about 94,000 compounds; about 6,200 (6.6%) were called active. Inconclusive results, whose numbers are uncertain, are shown with a selection of clear calls. Calls come from the whole dose curve; as a rule, active = well fitted inhibition curve with a large enough effect; inconclusive = small, poorly fitted or top-dose-only effect; inactive = flat fitted curve, though single readings scatter. A potency beside an inconclusive call is a rough fit, not a confirmed value.
Experiment: Cytotoxic Profiling in HEK 293 Cell Line of Diverse Libraries Using Quantitative High-Throughput Screening; note: nearly all actives have a fitted effect of over 60% in size
Conditions: HEK 293 viability, ATP luminescence (CellTiter-Glo), 48-72 h; activity change, negative = cytotoxicity: at 115 µM (top of the series) unless noted; series mostly up to 115 µM
Procedure, shortened: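 ATP-coupled CellTiter-Glo luminescence served as viability read-out, recorded 10 min after reagent addition at room temperature. HEK 293 cells, 250 cells/well, had been incubated with pintool-transferred compound for 48 or 72 hr at 37 degree Celsius.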
% is set by controls: 0 for no effect and ±100 for the full control effect; potency is the fitted concentration of half-maximal effect; tags give direction and shape of the fitted curve.

Which Potency does the source give for COc1ccc(NC(=O)c2nc3sccn3c2-c2ccc(F)cc2)cc1 here?
Its Potency is inconclusive: 39.8 µM [inhibitor, single point].

For O=C(NCCC1CCN(C(=O)Nc2cc(F)ccc2F)CC1)c1ccccn1, which “activity change, negative = cytotoxicity” value is on record?
The value was inactive: -17.3%.

Which Potency does the source give for O=S(=O)(Cc1ccccc1)N1CC(c2nc(-c3ccncc3)no2)C1 here?
The Potency was inconclusive: 89.1 µM [inhibitor, single point].

For Cc1c(Cl)cccc1NC(=O)N1CCC(OC2CCN(S(C)(=O)=O)CC2)CC1, which Potency is on record?
Its Potency is inconclusive: 79.4 µM [inhibitor, single point].

Which Potency does the source give for O=C(Cc1cccnc1)N1CCC2(CC1)CC(N1CCN(c3ccccn3)CC1)CCO2 (stereo not drawn) here?
The Potency was inconclusive: 79.4 µM [inhibitor, partial curve, poor fit].

Which Potency does the source give for Cc1ccc(C)c(OCc2cc(C(=O)N(C)Cc3cnccn3)no2)c1 here?
The Potency was inconclusive: 44.7 µM [inhibitor, partial curve, poor fit].

With Cc1cc(Cl)ccc1NC(=O)N1C[C@H](c2nc(-c3cccnc3)no2)[C@@H](C)C1 as the compound, how does the Potency read?
Its Potency is active: 44.7 µM.

For Cc1ccc(NC(=O)c2cc3n(n2)CC(c2ccc(Cl)cc2)OC3)cc1C (stereo not drawn), which Potency is on record?
The Potency was inconclusive: 50.1 µM [inhibitor, partial curve, poor fit].

With COCCc1noc(-c2nc(-c3ccc(OC)c(OC)c3)no2)n1 as the compound, how does the “activity change, negative = cytotoxicity” value read?
The value was inactive: -2.02%.

Which Potency does the source give for O=C(NC1CCN(c2cc(-c3ccc(F)cc3)[nH]n2)C1)c1ccc(Br)o1 (stereo not drawn) here?
The Potency was inconclusive: 50.1 µM [inhibitor, partial curve, poor fit].

For C=CCOc1c(OC)ccc2c1CN(CC=C)C(=O)CCN2C[C@@H](O)COCc1ccccc1, which Potency is on record?
The Potency was inconclusive: 50.1 µM [inhibitor, partial curve, poor fit].

Which Potency does the source give for COCC(=O)NC1CCN(c2nccc(Nc3ccc(OC)cc3)n2)CC1 here?
Its Potency is inconclusive: 79.4 µM [inhibitor, partial curve, poor fit].

For O=C(CCc1ccccc1)N1CCOCC12CCN(Cc1ccccc1)CC2, which Potency is on record?
The Potency was inconclusive: 31.6 µM [inhibitor, full curve].

With Cc1ccccc1-c1cc(O)c2c(c1)CN(Cc1ccoc1)CCO2 as the compound, how does the Potency read?
Its Potency is inconclusive: 44.7 µM [inhibitor, partial curve, poor fit].

With Fc1ccc(Cc2nc(-c3nnn4c3COC(c3ccc(Cl)cc3)C4)no2)cc1 (stereo not drawn) as the compound, how does the Potency read?
The Potency was inconclusive: 79.4 µM [inhibitor, single point].

Which Potency does the source give for COc1ccc(-c2cc(C(=O)NCc3ccccc3)c3cnn(C)c3n2)cc1 here?
Its Potency is inconclusive: 39.8 µM [inhibitor, full curve, poor fit].

Which Potency does the source give for O=C(Cc1cccc(Cl)c1)N1CCC(c2nn(-c3ccc(F)cc3)c(=O)[nH]2)CC1 here?
Its Potency is inconclusive: 79.4 µM [inhibitor, partial curve, poor fit].

Which “activity change, negative = cytotoxicity” value does the source give for O=C(Nc1ccccc1Cl)c1ccc2nnc(C3CCOCC3)n2c1 here?
The value was inactive: -1.53%.

For CCOC(=O)[C@H]1C[C@]2(CCCCN(CCOC(C)=O)C2=O)N(C(=O)c2ccno2)[C@H]1c1ccccc1, which “activity change, negative = cytotoxicity” value is on record?
The value was inactive: -22.1%.

For CC(C)Oc1cccc(-c2nc(C(=O)Nc3ccc(F)cc3)cs2)c1, which Potency is on record?
The Potency was inconclusive: 50.1 µM [inhibitor, partial curve, poor fit].

For CCCCN(CCC(=O)NCCc1ccccc1)C(=O)c1cc(C)oc1C, which Potency is on record?
Its Potency is active: 14.1 µM.

Which Potency does the source give for CN(Cc1nccn1Cc1ccccc1)C(=O)CCc1ccc2c(c1)OCO2 here?
Its Potency is inconclusive: 50.1 µM [inhibitor, partial curve, poor fit].

With CC(C)c1nc2c(c(-c3ccc(O)cc3)n1)CN([S+](=O)([O-])c1cccc(C(F)(F)F)c1)CC2 as the compound, how does the Potency read?
The Potency was inconclusive: 44.7 µM [inhibitor, partial curve, poor fit].

Which Potency does the source give for CCOC(=O)C1=C(C)N=C2SC=C(CC(=O)N3CCCC3)N2C1c1cccc(F)c1 (stereo not drawn) here?
Its Potency is inconclusive: 89.1 µM [inhibitor, single point].

Which Potency does the source give for Cc1cnc(CC2CCCN(C(=O)COc3ccccc3)C2)n1Cc1ccc(F)cc1 (stereo not drawn) here?
The Potency was inconclusive: 44.7 µM [inhibitor, partial curve, poor fit].

For COc1ccc(C(=O)C2CCCN(Cc3csc(C(C)=O)c3)C2)c(OC)c1 (stereo not drawn), which Potency is on record?
The Potency was inconclusive: 20 µM [inhibitor, full curve, poor fit].

For O=C(c1ccccc1Cl)N1CCc2nc(C3CC3)nc(-c3ccc(O)cc3)c2C1, which Potency is on record?
The Potency was inconclusive: 89.1 µM [inhibitor, single point].

For COc1ccccc1OCC(=O)c1ccc2c(c1)N(CC(=O)N(C)Cc1ccccc1)C(=O)CO2, which Potency is on record?
Its Potency is inconclusive: 50.1 µM [inhibitor, partial curve, poor fit].

For Cc1noc(C)c1[S+](=O)([O-])N1CCCC(C(=O)N2CCC(c3ccccc3)CC2)C1 (stereo not drawn), which Potency is on record?
The Potency was active: 44.7 µM.

Which Potency does the source give for Cc1nc2cnccn2c1C(=O)NCc1ccccc1Cl here?
Its Potency is inconclusive: 79.4 µM [inhibitor, partial curve].

For COCC1CN(C(C)=O)CC12CCN(Cc1cccc(C(F)(F)F)c1)CC2 (stereo not drawn), which Potency is on record?
Its Potency is inconclusive: 100 µM [inhibitor, partial curve, poor fit].

For Cc1ccc2c(C(=O)NCc3ccccc3C(F)(F)F)cc(NC(=O)C(C)C)cc2n1, which Potency is on record?
Its Potency is inconclusive: 39.8 µM [inhibitor, partial curve, poor fit].

With O=C(c1ccccc1)N1CCCC2(CN[S+](=O)([O-])c3cccnc3N2)C1 (stereo not drawn) as the compound, how does the Potency read?
The Potency was inconclusive: 89.1 µM [inhibitor, single point].

Which Potency does the source give for CC(=O)Nc1ccccc1-c1c(C)nn2c1N(C(=O)c1ccc(Oc3ccccc3)cc1)CCC2 here?
The Potency was inconclusive: 56.2 µM [inhibitor, partial curve, poor fit].

With Oc1cccc(CN(Cc2ccsc2)Cc2ccco2)c1 as the compound, how does the Potency read?
Its Potency is active: 35.5 µM.

With CC(C)N(C)Cc1nnnn1CC(=O)NCc1nc(-c2ccccc2)cs1 as the compound, how does the Potency read?
Its Potency is inconclusive: 44.7 µM [inhibitor, partial curve, poor fit].

For O=S(=O)(Cc1ccccc1)NC[C@H]1Cn2c(-c3ccc(Cl)cc3)cnc2CO1, which Potency is on record?
The Potency was inconclusive: 70.8 µM [inhibitor, partial curve, poor fit].

With CC(C)(C)OCC1CN(Cc2cccs2)C(=O)c2cccnc2O1 (stereo not drawn) as the compound, how does the Potency read?
The Potency was inconclusive: 89.1 µM [inhibitor, single point].

With COc1ccc(CNC(=O)c2nnn3c2CN(Cc2cccc(Cl)c2)C(=O)CC3)cc1OC as the compound, how does the “activity change, negative = cytotoxicity” value read?
The value was inactive: -26.5%.

For O=C1N(c2cccc(F)c2)C(c2ccccc2)C12CCN(Cc1cccc(F)c1O)CC2 (stereo not drawn), which Potency is on record?
Its Potency is inconclusive: 17.8 µM [inhibitor, full curve, poor fit].

For COCCNC(=O)c1cn2cc(-c3cccc(Cl)c3)n(CC=C(C)C)c(=O)c2n1, which Potency is on record?
The Potency was inconclusive: 50.1 µM [inhibitor, partial curve, poor fit].

With COCC(=O)NC[C@H]1OC[C@@H](NCc2ccc(F)cc2)[C@@H]1O as the compound, how does the “activity change, negative = cytotoxicity” value read?
The value was inactive: 3.76% [at 172 µM].

Which Potency does the source give for CCS(=O)(=O)Nc1ccc(C2(C(=O)NCc3cccc(Cl)c3)CCC2)cc1 here?
The Potency was inconclusive: 79.4 µM [inhibitor, single point].

For COc1nc2nc(CCc3ccccc3)n(C)c2cc1-c1ccc(CO)cc1, which Potency is on record?
Its Potency is inconclusive: 79.4 µM [inhibitor, partial curve].

With COCc1nncn1C1CCN(S(=O)(=O)c2ccc(Cl)c(C)c2)CC1 as the compound, how does the “activity change, negative = cytotoxicity” value read?
The value was inactive: -13.9%.

Which Potency does the source give for Cc1ccc(NC(=O)c2ccc3c(c2)N(C)C2CCCCCN2C3=O)cc1C (stereo not drawn) here?
Its Potency is active: 44.7 µM.

Which Potency does the source give for NCCc1ccc(CN2C[C@@H]3CC[C@H](C2)N(Cc2ccccc2)C3)cc1 here?
Its Potency is inconclusive: 56.2 µM [inhibitor, partial curve, poor fit].

With Cc1oc2c(c1C(=O)NCCN1CCOCC1)CN(Cc1cccc(F)c1)CC2 as the compound, how does the “activity change, negative = cytotoxicity” value read?
Its value is inactive: -3.3%.

Which “activity change, negative = cytotoxicity” value does the source give for COc1ccc(CNC2(Cc3cc(CN(C)Cc4ccccc4)on3)COC2)c(O)c1 here?
Its value is inactive: -0.448% [at 172 µM].

With Cc1cc2nc3n(c(=O)c2n1CC(=O)Nc1ccccc1F)CCCCC3 as the compound, how does the “activity change, negative = cytotoxicity” value read?
The value was inactive: 7.02%.

Which Potency does the source give for Cc1ccccc1-c1nn(-c2ccc(F)cc2F)cc1CN1CCCC1CCO (stereo not drawn) here?
Its Potency is inconclusive: 50.1 µM [inhibitor, partial curve, poor fit].

Which “activity change, negative = cytotoxicity” value does the source give for O=C(c1ccoc1)N1CCC(c2n[nH]c(=O)n2-c2ccccc2)CC1 here?
The value was inactive: 1.88%.

With O=C1CCN(S(=O)(=O)c2ccccc2)CCCC(C(=O)NCc2ccc(F)cc2)CCN1 (stereo not drawn) as the compound, how does the “outcome” value read?
The value was “inactive”.

For CCC(C)N1Cc2cc(NC(=O)c3ccc([N+](=O)[O-])cc3)ccc2OCC1=O (stereo not drawn), which Potency is on record?
Its Potency is inconclusive: 50.1 µM [inhibitor, partial curve, poor fit].

Which “activity change, negative = cytotoxicity” value does the source give for c1ccc(CN2CC[C@H](c3nnc(-c4ccco4)o3)C2)nc1 here?
The value was inactive: -29% [at 172 µM].

For COc1cccc(OCc2cc(C(=O)N3CCCCC3c3cccnc3)n[nH]2)c1 (stereo not drawn), which “activity change, negative = cytotoxicity” value is on record?
Its value is inactive: -22.6%.

For O=C(NCCc1ccccn1)c1ccc2c(c1)OCCN(c1ccccc1)C2, which Potency is on record?
Its Potency is inconclusive: 112 µM [inhibitor, partial curve, poor fit].

For COc1ccc(-c2cc(N3CCN(C(=O)c4ccc(C)cc4C)CC3)n[nH]2)cc1, which Potency is on record?
The Potency was active: 39.8 µM.

With O=C(NCCc1noc(-c2ccncc2)n1)c1n[nH]c2c1CCCCCC2 as the compound, how does the Potency read?
The Potency was inconclusive: 50.1 µM [inhibitor, partial curve, poor fit].

For COc1ccc(C(=O)N2CCCn3nc(C)c(-c4ccccc4-c4ccccc4)c32)cn1, which Potency is on record?
The Potency was inconclusive: 70.8 µM [inhibitor, partial curve].

Which Potency does the source give for c1cncc(COc2cc3c(cn2)NCCN(CC2CCCCC2)C3)c1 here?
Its Potency is inconclusive: 100 µM [inhibitor, partial curve].

Which Potency does the source give for COc1ccccc1C(=O)N1CCn2c(nn(-c3ccc(C(F)(F)F)cc3)c2=O)C1 here?
Its Potency is inconclusive: 44.7 µM [inhibitor, partial curve].

For Cc1nn(-c2ccc(C(C)C)cc2)c(C)c1[C@@H]1C=C[C@@H](NCc2ccccc2)C1, which Potency is on record?
Its Potency is active: 25.1 µM.
